{"source": "patent US20080254026A1", "about": "(published 2008)", "binders": {"B1": {"name": "human CD40 antigen expressed on the surface of cells (receptor)", "chain": "not shown", "notes": "Cells: Ramos lymphoma line, EBV-transformed B cells, normal human B cells/PBMC, NHL and CLL patient cells, carcinoma tissue; also called cell surface CD40; cell-surface CD40"}}, "key": {"TRAF3": {"target": "T1, TRAF3 (human, UniProt Q13114 1-568)", "T1 construct": "Detected by Western blot in CD40 immunoprecipitates", "T1 sequence (looked up)": "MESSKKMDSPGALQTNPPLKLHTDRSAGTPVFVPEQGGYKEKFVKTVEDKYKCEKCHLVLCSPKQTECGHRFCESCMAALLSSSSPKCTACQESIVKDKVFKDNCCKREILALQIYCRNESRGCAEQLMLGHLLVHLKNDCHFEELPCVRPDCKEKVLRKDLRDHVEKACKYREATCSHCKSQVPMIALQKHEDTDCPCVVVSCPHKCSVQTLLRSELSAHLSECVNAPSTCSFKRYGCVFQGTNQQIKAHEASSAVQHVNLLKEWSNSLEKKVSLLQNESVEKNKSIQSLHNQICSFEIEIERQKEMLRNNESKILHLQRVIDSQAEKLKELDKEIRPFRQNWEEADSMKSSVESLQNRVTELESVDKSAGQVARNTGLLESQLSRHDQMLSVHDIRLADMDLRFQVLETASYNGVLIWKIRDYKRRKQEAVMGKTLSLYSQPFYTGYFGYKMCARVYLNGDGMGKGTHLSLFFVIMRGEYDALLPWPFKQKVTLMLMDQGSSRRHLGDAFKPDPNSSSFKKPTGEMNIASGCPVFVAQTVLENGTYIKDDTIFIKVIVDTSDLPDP", "experiment": "immunoprecipitation of CD40 from normal human B cells, Western blot"}, "TRAF2": {"target": "T2, TRAF2 (human, UniProt Q12933 2-501)", "T2 construct": "Detected by Western blot in CD40 immunoprecipitates", "T2 sequence (looked up)": "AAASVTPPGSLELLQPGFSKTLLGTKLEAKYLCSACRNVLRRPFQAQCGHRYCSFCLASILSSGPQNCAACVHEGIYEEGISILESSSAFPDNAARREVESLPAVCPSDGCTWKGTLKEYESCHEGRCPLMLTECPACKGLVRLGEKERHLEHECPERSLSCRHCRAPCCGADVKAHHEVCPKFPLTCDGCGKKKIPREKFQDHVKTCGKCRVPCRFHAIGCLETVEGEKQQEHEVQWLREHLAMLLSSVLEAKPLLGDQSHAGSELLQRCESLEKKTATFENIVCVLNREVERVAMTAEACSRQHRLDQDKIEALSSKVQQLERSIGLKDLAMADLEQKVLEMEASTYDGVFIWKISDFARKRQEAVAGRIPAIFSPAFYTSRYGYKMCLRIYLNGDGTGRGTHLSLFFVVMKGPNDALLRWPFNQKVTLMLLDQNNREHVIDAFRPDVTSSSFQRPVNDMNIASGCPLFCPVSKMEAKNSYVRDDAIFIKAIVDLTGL", "experiment": "immunoprecipitation of CD40 from normal human B cells, Western blot"}}}
{"binder": "B1", "values": [{"measurement": "binding result", "setting": "TRAF3", "value": "binds"}, {"measurement": "binding result", "setting": "TRAF2", "value": "binds"}]}
